Results on 24 sequences are retold here after the supplement of paper PMC11417369.

The other results are listed elsewhere or left out.

The assay concerns PfSIP2 AP2 domain 1 (GST-tagged). Briefly: gcPBM binding intensity (ln(normalized median fluorescence intensity)); higher = stronger DNA binding. The essentials: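 GST-tagged P. falciparum DNA-binding domains produced in E. coli were incubated for 1 h on an Agilent 4 × 180k array of primer-extended double-stranded 36-bp intergenic genomic probes with negative controls. Binding intensity is the highest Masliner-normalised natural-log median intensity across replicate spots of either probe orientation, with bound protein detected by Alexa488 anti-GST antibody at 488 nm.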
In the case of “TATTGGGGGTATAAACACAGTAAGTAAATAAATAAA [CACACA_negctrl_site1680]”, the “gcPBM binding intensity (ln)” value amounted to 7.41.
With “TCTATTCATTTTGAAGGTACACATTTCTTTATAATA [XGTACX_site6218]”, the “gcPBM binding intensity (ln)” value was 6.99.
As for “GTATTAGATAAATACACACACAAGCATATATTTTTA [CACACA_site3431]”, the “gcPBM binding intensity (ln)” value turned out to be 6.93.
In the case of “AATATATCATTATATAAACACACAATATGTTTTTTA [CACACA_site9260]”, the “gcPBM binding intensity (ln)” value was 6.72.
Under “AAAAATATATATATATATATATATATAAGGAATATA [XGTACX_negctrl_site450]” stands 7.69; under “AATAAATATATAAATACACACAAACATACATATATA [CACACA_site9340]”, 7.09.
Regarding “AATACAATATAGTGAAAAATAATTAAATACAATAAG [XGTACX_negctrl_site161]”, the “gcPBM binding intensity (ln)” value came out at 6.93.
The figure for “CGTAAACAATTATGATGTACATAAAATATATATATA [XGTACX_site2705]” is 8.58.
Regarding “TTGTTCCACAAAAATTTAGTCAAAAAAAAATAAAAA [TGCATGCA_negctrl_site546]”, the “gcPBM binding intensity (ln)” value turned out to be 6.76.
As for “ACAAAAAAAAAAATAACACACATGGGGGTGTATAAA [CACACA_site3797]”, the “gcPBM binding intensity (ln)” value was determined as 7.39.
For “AATGAATAACAATACTATATGATTTTTAATACATTA [XGTACX_negctrl_site42]”, the “gcPBM binding intensity (ln)” value is 6.67.
In the case of “TTAAATTTTTTTTTGTGTACGAAAAACAGAAAAAAT [XGTACX_site8625]”, the “gcPBM binding intensity (ln)” value was found to be 7.31.
For “TATGTGTATGGGAATGCATGTAAATATGTACATATA [TGCATGCA_site737]”, the “gcPBM binding intensity (ln)” value amounted to 7.29.
Regarding “ATATATATATACATATGTACATATAAAATAATTTTG [XGTACX_site3731]”, the “gcPBM binding intensity (ln)” value was 9.05.
“TCTTCCCAAATAAAGTGTACATAAATACGAATAATA [XGTACX_site4363]”: the “gcPBM binding intensity (ln)” value worked out at 7.18.
For “AAAATTAAAATATATACACACATATATATATTAAAT [CACACA_site4419]”, the “gcPBM binding intensity (ln)” value is 6.79.
Take “TAATGTATATGTAAATGTACATGTATATTATTTAAA [XGTACX_site1840]”: the “gcPBM binding intensity (ln)” value amounted to 6.93.
Turning to “ATCAAAGATAAATTTACACACATATATATATATATA [CACACA_site2969]”, the “gcPBM binding intensity (ln)” value is 9.46.
Under “AAGATATTTGTATAATGTACAAAACTATATAAAACT [XGTACX_site1433]” stands 6.77.
Turning to “TATTTTCATTTGCGCGCACACAATAATAATTTTTGG [CACACA_site3525]”, the “gcPBM binding intensity (ln)” value is 7.88.
Turning to “AACAATTATTTATCTACACACTTTTATGTTATTTAC [CACACA_site9]”, the “gcPBM binding intensity (ln)” value worked out at 7.06.
Turning to “TATAAATTAATGACATGTACATAAAAGTATAGATGT [XGTACX_site6534]”, the “gcPBM binding intensity (ln)” value came to 7.3.
In the case of “TAAAAAATATAAATGACACACACTTAAAAACAAAGA [CACACA_site671]”, the “gcPBM binding intensity (ln)” value was found to be 7.21.
The figure for “AAATATACAAAATATACACACATATTTATTTATGAT [CACACA_site2051]” is 6.9.
